Experimental data taken from the supplement of paper PMC4967469.

Columns and labels:
Experiment in all cases: Viability of human cancer cell lines after 72 h of drug (GDSC screen)
[1] = compound: COc1cc(O)c2c(c1)/C=C/C[C@H](O)[C@H](O)C(=O)/C=C\C[C@H](C)OC2=O [(5Z)-7-Oxozeaenol]; conditions: top dose 10 µM; top dose inferred
Experimental: (§1)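 Human cancer cell lines in 384-well plates, medium with 10% serum, drug for 72 h over a 256-fold dose range (nine 2-fold or five 4-fold steps up to the top dose). Adherent lines were fixed and stained with the nucleic acid dye Syto60, suspension lines read with resazurin; signal relative to control wells, capped at 0 and 100%. One two-parameter sigmoid per drug and line, fitted in a mixed model over all curves with the slope shared within a line.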

[2] = compound: Cc1ccc(F)c(NC(=O)Nc2ccc(-c3cccc4[nH]nc(N)c34)cc2)c1 [ABT-869]; conditions: top dose 1.024 µM; top dose inferred
Experimental: as §1

[3] = compound: COc1nc(C)cnc1NS(=O)(=O)c1cccnc1-c1ccc(-c2nnco2)cc1 [Zibotentan]; conditions: top dose 20 µM; top dose inferred
Experimental: as §1

[4] = compound: C/C=C(/C)C(=O)O[C@H]1C(C)=C2[C@H]([C@@H]1OC(=O)CCCCCCC)[C@@](C)(OC(C)=O)C[C@H](OC(=O)CCC)[C@@]1(O)[C@H]2OC(=O)[C@@]1(C)O [Thapsigargin]; conditions: top dose 0.512 µM; top dose inferred
Experimental: as §1

[5] = compound: C=CC(=O)Nc1cc(-n2c(=O)ccc3cnc4ccc(-c5cn[nH]c5)cc4c32)ccc1C [QL-X-138]; conditions: top dose 10.24 µM; top dose inferred
Experimental: as §1

[6] = compound: Cc1cnc(-c2cnc(NCCNc3ccc(C#N)cn3)nc2-c2ccc(Cl)cc2Cl)[nH]1 [CHIR-99021]
Experimental: as §1

[7] = compound: COc1cc(N2CCC(O)CC2)ccc1Nc1cc(Nc2ccccc2S(=O)(=O)C(C)C)c2cc[nH]c2n1 [MPS-1-IN-1]; conditions: top dose 20 µM; top dose inferred
Experimental: as §1

[8] = compound: COc1cc2ncnc(-n3nc(-c4ccccn4)nc3N)c2cc1OC [CP466722]; conditions: top dose 16 µM; top dose inferred
Experimental: as §1

[9] = compound: CCn1c(-c2nonc2N)nc2cnc(Oc3cccc(NC(=O)c4ccc(OCCN5CCOCC5)cc4)c3)cc21 [GSK269962A]; conditions: top dose inferred
Experimental: as §1

[10] = top dose 2.56 µM, screen: GDSC drug entry 154
[11] = top dose 10 µM, screen: GDSC drug entry 1241, top dose inferred
[12] = top dose 5 µM, screen: GDSC drug entry 1192
[13] = top dose 2.5 µM, screen: GDSC drug entry 127

Cell Line	AUC [1]	IC50 [1]	AUC [2]	IC50 [2]	AUC [3]	IC50 [3]	AUC [4]	IC50 [4]	AUC [5]	IC50 [5]	AUC [6, 10]	IC50 [6, 10]	AUC [6, 11]	IC50 [6, 11]	AUC [7]	IC50 [7]	AUC [8]	IC50 [8]	AUC [9, 12]	IC50 [9, 12]	AUC [9, 13]	IC50 [9, 13]
H2804 (mesothelioma, adherent)	0.882	> 10 µM	0.983	> 1.02 µM	0.983	> 20 µM	0.289	0.00762 µM	0.877	> 10.2 µM	0.924	> 2.56 µM	0.664	1.88 µM	0.983	> 20 µM	0.849	13.8 µM	0.982	> 5 µM	–	–
H2810 (mesothelioma, adherent)	0.808	5.84 µM	–	–	–	–	–	–	–	–	–	–	0.851	8.93 µM	–	–	–	–	0.943	> 5 µM	–	–
H2818 (mesothelioma, adherent)	0.747	3.26 µM	0.985	> 1.02 µM	0.989	> 20 µM	0.924	> 0.512 µM	0.962	> 10.2 µM	0.981	> 2.56 µM	0.955	> 10 µM	0.987	> 20 µM	0.944	> 16 µM	0.946	> 5 µM	–	–
HO-1-N-1 (head and neck, adherent)	0.474	0.534 µM	0.987	> 1.02 µM	0.988	> 20 µM	0.837	0.303 µM	0.887	9.84 µM	0.988	> 2.56 µM	0.951	> 10 µM	0.961	> 20 µM	0.932	> 16 µM	0.815	2.46 µM	–	–
HPAC (pancreas, adherent)	0.765	5.16 µM	0.979	> 1.02 µM	0.979	> 20 µM	0.085	< 0.002 µM	0.79	6.76 µM	0.978	> 2.56 µM	0.976	> 10 µM	0.786	12.7 µM	0.858	> 16 µM	0.918	> 5 µM	–	–
HPAF-II (pancreas, adherent)	0.585	1.15 µM	0.981	> 1.02 µM	0.972	> 20 µM	0.627	0.0799 µM	0.813	7.75 µM	0.971	> 2.56 µM	0.963	> 10 µM	0.842	> 20 µM	0.886	> 16 µM	0.808	3.63 µM	–	–
KOSC-2 (head and neck, adherent)	0.711	2.54 µM	0.978	> 1.02 µM	0.985	> 20 µM	0.882	> 0.512 µM	0.944	> 10.2 µM	0.983	> 2.56 µM	0.933	> 10 µM	0.939	> 20 µM	–	–	0.905	> 5 µM	–	–
NCI-H1650 (lung adenocarcinoma, adherent)	0.752	4.26 µM	–	–	–	–	–	–	–	–	–	–	0.963	> 10 µM	–	–	–	–	0.965	> 5 µM	–	–
NCI-H2170 (lung squamous cell carcinoma, adherent)	0.833	6.9 µM	0.983	> 1.02 µM	0.986	> 20 µM	0.233	0.00514 µM	0.953	> 10.2 µM	–	–	–	–	0.985	> 20 µM	0.934	> 16 µM	0.782	2.19 µM	–	–
NCI-H2228 (lung adenocarcinoma, adherent)	0.838	> 10 µM	0.968	> 1.02 µM	0.972	> 20 µM	0.299	0.00645 µM	0.786	7.15 µM	–	–	–	–	0.669	4.73 µM	0.857	> 16 µM	0.91	> 5 µM	–	–
SNU-175 (large intestine, suspension)	–	–	0.979	> 1.02 µM	0.982	> 20 µM	–	–	0.689	2.09 µM	–	–	–	–	0.743	5.89 µM	0.657	2.64 µM	–	–	–	–
SNU-475 (liver, adherent)	–	–	0.988	> 1.02 µM	0.991	> 20 µM	0.912	> 0.512 µM	0.863	7.2 µM	0.99	> 2.56 µM	–	–	0.899	> 20 µM	0.879	13.1 µM	–	–	–	–
SNU-1040 (large intestine, adherent)	0.926	> 10 µM	0.975	> 1.02 µM	0.981	> 20 µM	–	–	0.773	5.4 µM	–	–	0.98	> 10 µM	0.853	> 20 µM	0.669	3.49 µM	0.941	> 5 µM	–	–
SW1116 (large intestine, adherent)	0.603	1.32 µM	0.985	> 1.02 µM	0.984	> 20 µM	–	–	0.982	> 10.2 µM	–	–	0.937	> 10 µM	0.981	> 20 µM	0.911	> 16 µM	0.949	> 5 µM	–	–
UACC-812 (breast, adherent)	–	–	0.991	> 1.02 µM	0.99	> 20 µM	0.989	> 0.512 µM	0.954	> 10.2 µM	0.991	> 2.56 µM	–	–	0.976	> 20 µM	0.84	10.4 µM	–	–	0.988	> 2.5 µM
YMB-1-E (breast, adherent)	–	–	0.98	> 1.02 µM	0.981	> 20 µM	–	–	0.648	1.92 µM	–	–	–	–	0.898	> 20 µM	0.877	> 16 µM	–	–	–	–

By IC50 is meant the dose at which the fit gives 50% viability; fits outside the tested doses are given as limits. The AUC spans the tested range (256-fold, ending at the top dose) of the same fit; it is 1 without any effect and falls as sensitivity rises. A top dose marked as inferred was calculated from the reported fits. For some of these results: Where an entry number is given, a second screen of the drug exists; the two often differ.
